Data: article PMC7156725, “Cardiolipin is required in vivo for the stability of bacterial translocon and optimal membrane protein translocation and insertion” (Scientific Reports, 2020)

What was measured:
[1] = biological target: the molecule itself; test: native gel or EMSA; BN-PAGE (4-15% gel) and Western blot of inner membranes of the cardiolipin-lacking E. coli mutant BKT12 ΔclsABC solubilised with 2% digitonin (1 μg digitonin/μg protein); endogenous proteins
[2] = biological target: the molecule itself; test: native gel or EMSA; BN-PAGE (4-15% gel) and Western blot of inner membranes of wild-type E. coli W3110 solubilised with 2% digitonin (1 μg digitonin/μg protein); endogenous proteins; 25 μg of IM protein a lane

B1: SecA (translocation ATPase) (enzyme)
chain: not shown
notes: SecA, E. coli, translocation ATPase, peripheral component of the translocon; endogenous
- stoichiometry N [1]: 4
- stoichiometry N [2]: 2
